Experimental data published in the BET-seq Pho4 binding data (Le et al. 2018).
This is one part of the list. Values were computed here from the reads of four pooled replicates and scatter widely.

These sequences were tested against T1, Pho4 (S. cerevisiae) (UniProt P07270) (assay: relative binding free energy (BET-seq); higher = weaker binding). Details: reference: library average.
T1 sequence: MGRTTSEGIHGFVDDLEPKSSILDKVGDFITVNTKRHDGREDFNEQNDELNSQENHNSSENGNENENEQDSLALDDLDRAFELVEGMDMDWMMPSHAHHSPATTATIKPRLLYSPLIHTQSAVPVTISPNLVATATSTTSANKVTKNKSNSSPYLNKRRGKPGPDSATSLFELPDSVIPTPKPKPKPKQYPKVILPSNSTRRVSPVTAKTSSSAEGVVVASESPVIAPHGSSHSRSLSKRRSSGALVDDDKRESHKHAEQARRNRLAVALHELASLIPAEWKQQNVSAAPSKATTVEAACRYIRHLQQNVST

Sequence	relative binding free energy [kcal/mol]
GGTTGCACGTGGCTGT	0.02
GGTATCACGTGTGATC	0.33
TAATTCACGTGTGAAG	0.26
GTGGTCACGTGGGAGC	-0.07
TTTTTCACGTGAAAGG	0.39
AGTGGCACGTGGAGAT	0.02
TGGGACACGTGCGGGG	0.07
TTGGGCACGTGGCATT	-0.07
GGCTTCACGTGTGCGA	0.46
TATGTCACGTGTCCTG	0.19
GGTGTCACGTGGCGTG	0.07
TTTGTCACGTGGACTA	0.08
ACGGGCACGTGTGGTT	-0.01
AAATGCACGTGGAGTT	0.11
TGGTCCACGTGGTGAA	0.09
GATGTCACGTGACTTT	0.38
TGTTGCACGTGGTCAT	-0.03
AACTTCACGTGTTGGG	0.31
TTGGACACGTGTCGTG	0.11
AATTACACGTGGGTGT	0.09
AGTAACACGTGGTGGG	-0.09
TGACACACGTGGGGGT	-0.21
AGATTCACGTGGGTAA	0.11
GATGCCACGTGTGGGG	-0.09
ATTGACACGTGACGGA	0.2
GTGGTCACGTGTTGCT	0.18

Sequence	relative binding free energy [kcal/mol]
AGGTCCACGTGGGAGG	-0.13
GGAGACACGTGGAGTA	0.01
ATAGGCACGTGGCGAG	-0.16
TGGGTCACGTGATGGC	0.13
TTTGGCACGTGAGGGC	0.2
AGGGACACGTGTATTT	0.01
AGGTGCACGTGTGTCT	-0.2
GAGTACACGTGAGTGG	0.28
ATGGTCACGTGCGAGT	0.13
TCTTGCACGTGATGTT	0.21
CAATTCACGTGGGTGA	0.09
AGGTGCACGTGGGAAG	-0.08
TAAGGCACGTGTTTGA	-0.24
TCTGTCACGTGTAGTG	0.15
GTGGTCACGTGTGGTG	0.23
GTAGGCACGTGAGGGA	0.22
GATGTCACGTGTGCTT	0.31
CTAGTCACGTGTTATT	0.01
TAGTGCACGTGAAGGG	0.2
TCAGTCACGTGTTGGT	0.1
GATTACACGTGTAGTA	0.08
GCGTGCACGTGGTGGG	-0.05
GATGTCACGTGGTCTA	0.11
CTGGGCACGTGGGGAT	-0.16
TGGCTCACGTGTATAT	0.26
CTAGTCACGTGGAATT	0.28

Sequence	relative binding free energy [kcal/mol]
TTAAGCACGTGGTGCG	-0.27
GTAATCACGTGATTTT	0.22
TAGGACACGTGCGGGG	0.01
TTAGACACGTGAGTCT	0.17
GTAATCACGTGTTGTA	0.22
GTGTACACGTGAATTT	0.31
AGATGCACGTGTGCTG	-0.01
ATAGTCACGTGTTACT	0.15
TTTTACACGTGGTGTG	0.11
GGGAGCACGTGGGGGC	-0.18
ACCTTCACGTGTTTGT	0.36
GTATGCACGTGTGGTG	0.08
TGGCTCACGTGCATTG	0.17
AGTTGCACGTGAGCAG	0.17
ACGGGCACGTGAATAG	0.23
CTTGACACGTGCGGGT	-0.07
TGAGTCACGTGGTAAA	0.19
AGGTGCACGTGAGACG	0.18
AGACACACGTGGGAGG	-0.06
TATTTCACGTGATACG	0.3
AGGGTCACGTGGGGCC	-0.06
ACGGGCACGTGATATT	0.1
CGGGGCACGTGCTTGT	-0.24
TTTCTCACGTGGTTAC	0.23
TGTTACACGTGTGTAC	0.07
GATTGCACGTGGTGGG	0.03

Sequence	relative binding free energy [kcal/mol]
TCGGACACGTGGGTGA	-0.21
TATTTCACGTGTTACG	0.21
CGTGTCACGTGGTTTT	0.07
TTGCTCACGTGGTAGC	0.13
GGGCCCACGTGTGGTA	0.12
TCGGGCACGTGGCTGG	-0.14
GCGGACACGTGGAGGT	0.12
CTTTTCACGTGAGTAG	0.14
AGGAGCACGTGGCGTA	-0.24
TAGTACACGTGTCGTA	0.03
GGACACACGTGGTATG	-0.02
ATCAACACGTGAGGTT	0.31
ATTCGCACGTGTTATT	0.09
TTTTACACGTGATGGT	0.21
TTACACACGTGGGGTG	-0.19
GTAGTCACGTGTTAGT	0.13
CATGTCACGTGTAGTC	0.18
GTGGACACGTGCGTAG	0.02
TATTCCACGTGTATGT	0.06
CTTTGCACGTGTTTGT	-0.03
CGCGGCACGTGGCGGG	-0.19
GATAGCACGTGCAGGG	-0.07
TGTCACACGTGATTAG	0.14
TAGTGCACGTGTGAGA	0.18
AGGGGCACGTGAGAGT	0.16
TGTGTCACGTGACTTA	0.28

Sequence	relative binding free energy [kcal/mol]
TTGAACACGTGGATGG	0.01
CTTTGCACGTGTAAAG	0.17
CTATACACGTGTTGGG	-0.03
ATATGCACGTGTGCGT	-0.09
TAATGCACGTGGATGG	-0.05
GATTACACGTGTGTAG	0.24
TTCGTCACGTGAATTG	0.24
GTGCTCACGTGGGATG	0.19
TCTTACACGTGTTGTT	0.01
TGATGCACGTGGTGAG	-0.03
GTGCGCACGTGTGCTG	-0.14
TTTGCCACGTGAAGTG	0.09
GGAAGCACGTGTATGT	0.03
ATGTGCACGTGGAGAA	-0.08
TGGTTCACGTGGTCTA	0.22
TATGCCACGTGGTGTC	-0.14
ATGAACACGTGGGGTA	-0.2
CTCGACACGTGGGGGA	-0.11
TTTTGCACGTGCGAGA	0.16
TGGTTCACGTGTGGCC	0.29
GGGTACACGTGAGTAA	0.27
GTTTTCACGTGTGGCG	0.22
GCTGGCACGTGGGTCT	-0.21
TAGGGCACGTGTTCAG	-0.16
TAGGTCACGTGGGACA	-0.05
GTTTTCACGTGTGATG	0.44

Sequence	relative binding free energy [kcal/mol]
AGGTGCACGTGTTTGG	0.06
TTGAGCACGTGATGGC	0.13
TTATACACGTGGACGG	0.08
ATATGCACGTGCAGTG	-0.17
TTGCGCACGTGGCGGA	-0.11
AGGGCCACGTGTATTG	0.06
TCTGGCACGTGGTTTA	-0.13
TCGTTCACGTGTTTTT	0.28
ATTGTCACGTGCGGCT	0.11
TGTGGCACGTGGCAAT	-0.25
TGGCACACGTGCTGGG	0.02
AACTGCACGTGGCGGT	0.17
AGTGACACGTGAGGCG	0.17
GTAGGCACGTGAGTGC	0.27
TTTGGCACGTGATATC	0.05
TACGGCACGTGGTGGA	-0.16
AATTTCACGTGGCTGG	0.34
TATTGCACGTGAGCTG	0.05
ATTGACACGTGGCGTG	0
GGGAACACGTGGGTGT	-0.09
GTGTGCACGTGGTTTT	0.06
TTGGGCACGTGTCAAT	-0.18
TTAGTCACGTGTACAG	0.13
TTGCGCACGTGGTTAT	-0.24
GTAAGCACGTGGCGGT	-0.15
AGGATCACGTGGTTCA	0.15

Sequence	relative binding free energy [kcal/mol]
GGCTGCACGTGAAGGG	0.28
GGCGGCACGTGGGCTA	-0.22
GTGATCACGTGGCTGT	0
TATGGCACGTGGAAGG	-0.05
GGCGGCACGTGGCGCG	-0.15
GTAAGCACGTGTGGTG	-0.08
TGGTTCACGTGTGCCG	0.31
TTTTACACGTGATAAA	0.22
TGGTTCACGTGCGAGG	0.31
ATTATCACGTGCTTTT	0.15
CGTTACACGTGTAAGG	0.2
TGTCTCACGTGTAGGG	0.14
GGAGGCACGTGGATAA	0.01
GTTAGCACGTGGGGTC	-0.1
TTACGCACGTGTTTAA	0.04
GCGGCCACGTGGGTTG	-0.19
AGGATCACGTGGGGAT	-0.01
TGTCTCACGTGTCGAT	0.35
GTTGCCACGTGGAGGC	-0.01
TTCATCACGTGGTGGC	0.14
CGGGGCACGTGGCGAT	0.02
GAGGGCACGTGAGGCA	0.12
CGGAGCACGTGATGGG	-0.07
GTAATCACGTGTTAAG	0.21
GGCGCCACGTGTTAGG	0.05
TAATTCACGTGGGTCT	0.16

Sequence	relative binding free energy [kcal/mol]
TATGTCACGTGCTTGG	0.14
TTAATCACGTGTGTGT	0.12
AAATTCACGTGTGGCT	0.17
TTTAACACGTGTTGAT	0.02
TGTGTCACGTGACGTA	0.17
ATGGGCACGTGAGATG	0.14
GGAATCACGTGGGAGG	0.15
GGGAGCACGTGATGCG	0.05
AATGGCACGTGAGGAA	0.03
TGGCCCACGTGGTGTA	-0.18
TTTGTCACGTGATGCG	0.11
GTTGGCACGTGCAGGG	-0.05
TTCGGCACGTGTAGTA	0.03
AGGCTCACGTGGGGGA	0.06
GGGGGCACGTGGAGAC	-0.03
AATTGCACGTGATATT	0.01
AGGGGCACGTGCAGAT	-0.14
TTTACCACGTGTGTGG	0.09
AGGATCACGTGTTAGG	0.17
GTTCCCACGTGTGGGG	-0.03
TGGTACACGTGGTGGG	0.12
TCTAGCACGTGATGGT	0.06
TGTTCCACGTGGGTTC	-0.11
AATAGCACGTGAAGTA	0.34
AAAGTCACGTGTATGG	0.15
ATAGACACGTGGAAGG	0.02

Sequence	relative binding free energy [kcal/mol]
TGTTACACGTGGTCGA	0.14
GTTTACACGTGTTAAG	0.13
GGCGTCACGTGTTTAT	0.24
GTATTCACGTGAGTAA	0.45
CCTGGCACGTGGGGTA	-0.27
CGGTGCACGTGATTTG	0.11
GTTTGCACGTGGTCCT	-0.07
AGACACACGTGGGGTG	-0.28
CATCGCACGTGTGTGG	-0.01
TTACTCACGTGCGGGG	0.15
ACGGGCACGTGTCTGG	0
ATAGTCACGTGTTGTC	0.02
CTGGTCACGTGTGAGA	0.18
GTTTGCACGTGGCGCG	-0.08
CTGGACACGTGCGTGT	0.05
GCTGGCACGTGATCGG	-0.1
TGTATCACGTGGCGTC	0.04
TGTAGCACGTGGTAGT	-0.14
AGGGCCACGTGGTATA	-0.16
TTGTGCACGTGTCAGA	-0.03
TTATGCACGTGAAGGC	0.31
ATTATCACGTGTAGAG	0.24
